# Laboratory results taken from PubChem BioAssay AID720709 (National Center for Advancing Translational Sciences (NCATS), 2013).
# Hit rate of the full screen: of about 360,000 compounds, about 520 (0.14%) were called active. The inconclusive results got no clear call from the source; some entries with a clear call stand among them for comparison. Calls come from the whole dose curve; as a rule, active = well fitted inhibition curve with a large enough effect; inconclusive = small, poorly fitted or top-dose-only effect; inactive = no such curve, though single readings can be large or run the other way. Potencies of inconclusive entries are left out as doubtful fits.
# Target: Rap guanine nucleotide exchange factor 3 (Homo sapiens) (UniProt O95398)
# Experiment: qHTS for Antagonist of cAMP-regulated guanine nucleotide exchange factor 3 (EPAC1): primary screen; note: nearly all actives have a fitted effect of over 50% in size;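 for activity change, negative = inhibition: plate controls were vehicle for no effect and positive control for full effect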
# Conditions: EPAC1 GEF assay, Rap1b-BODIPY-GDP exchange fluorescence; activity change, negative = inhibition: at 115 µM (top of the series)
# Potency is the fitted concentration of half-maximal effect; tags give direction and shape of the fitted curve.
# UniProt O95398, sequence (O95398 whole entry, looked up): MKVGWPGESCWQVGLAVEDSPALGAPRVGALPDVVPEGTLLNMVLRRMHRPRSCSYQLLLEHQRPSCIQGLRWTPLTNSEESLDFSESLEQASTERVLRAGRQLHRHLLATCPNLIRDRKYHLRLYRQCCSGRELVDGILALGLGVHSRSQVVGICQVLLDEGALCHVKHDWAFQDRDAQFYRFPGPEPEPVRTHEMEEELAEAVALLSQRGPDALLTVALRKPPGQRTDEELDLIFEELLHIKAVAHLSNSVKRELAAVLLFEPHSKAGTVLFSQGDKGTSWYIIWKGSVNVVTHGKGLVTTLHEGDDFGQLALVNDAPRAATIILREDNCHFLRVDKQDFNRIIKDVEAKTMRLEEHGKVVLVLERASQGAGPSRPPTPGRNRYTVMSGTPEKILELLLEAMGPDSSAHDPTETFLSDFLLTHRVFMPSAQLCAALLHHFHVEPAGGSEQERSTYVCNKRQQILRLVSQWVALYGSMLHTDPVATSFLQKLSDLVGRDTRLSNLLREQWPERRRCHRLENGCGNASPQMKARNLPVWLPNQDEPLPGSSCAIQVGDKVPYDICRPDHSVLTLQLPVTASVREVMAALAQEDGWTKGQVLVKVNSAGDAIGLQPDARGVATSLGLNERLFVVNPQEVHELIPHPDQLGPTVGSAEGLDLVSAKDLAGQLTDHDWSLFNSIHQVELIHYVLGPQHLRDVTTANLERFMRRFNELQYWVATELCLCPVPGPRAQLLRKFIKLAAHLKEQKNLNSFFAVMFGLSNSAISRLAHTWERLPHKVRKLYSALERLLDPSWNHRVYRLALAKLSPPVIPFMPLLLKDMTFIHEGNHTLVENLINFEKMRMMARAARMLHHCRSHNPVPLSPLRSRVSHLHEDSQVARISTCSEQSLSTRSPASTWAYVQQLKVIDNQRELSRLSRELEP
Structure (SMILES),Potency,"activity change, negative = inhibition"
CC(=O)Nc1ccc(S(=O)(=O)Nc2ccc3c(c2)OCCO3)cc1,"inconclusive [inhibitor, single point]",
CC(C)(C)c1ccc(/C=C(\c2nc3ccccc3[nH]2)S(=O)(=O)c2ccccc2)cc1,,inconclusive: -32.8% [inhibitor]
CCOc1ccc(N(CC(=O)NC2CCCC2)C(=O)CCC(=O)Nc2nccs2)cc1,"inconclusive [inhibitor, partial curve]",
N#Cc1cccc(N=c2ssnc2Cl)c1,inactive,
OCCN1CCN(C(=S)NC2CCCC2)CC1,"inconclusive [inhibitor, partial curve, poor fit]",
Cc1ccc2nc(-c3ccc(N4C(=NC(=O)CCC(=O)O)SC5CS(=O)(=O)CC54)cc3)sc2c1 (stereo unspecified),inactive,
CCOP(=O)(OCC)C(Cc1ccc(OC)c(OC)c1)N=C(c1ccccc1)c1ccccc1 (stereo unspecified),inactive,
Cc1ccc(NC(=O)C2CCCN(C(=O)c3ccc(Cl)cc3)C2)cc1C (stereo unspecified),inactive,
CCOc1ccc(C2C(C(=O)c3ccc(C)o3)=C(O)C(=O)N2c2cc(C)on2)cc1OC (stereo unspecified),inactive,
CCN(C(=O)CCc1nnc2ccc(NCc3ccco3)nn12)c1ccccc1,"inconclusive [inhibitor, partial curve, poor fit]",
C=CCC[C@@H](CCCCC)OC(=O)/C=C/[C@@H](O)[C@H](O)C[C@H](O)CC=C,inactive,
Cc1cc(C)cc(NCc2cc(=O)oc3cc(-c4ccccc4)c(O)cc23)c1,"inconclusive [inhibitor, single point]",
O=C(Nc1ccccc1)n1cc(-c2ccccn2)c(N2CCOCC2)n1,inactive,
O=C(NNc1c2ccccc2nc2ccccc12)c1ccccc1O,"inconclusive [inhibitor, partial curve]",
O=c1[nH]c2ccc(Cl)cc2c(-c2ccccc2)c1SC(=S)N1CCOCC1,inactive,
CCOC(=O)c1c(NC(=O)Cn2nc(C(F)F)cc2C(F)F)sc(C)c1C,inactive,
O=C(NCc1ccccc1)C(c1ccccc1)n1c(=O)c(-c2ccco2)nc2ccccc21 (stereo unspecified),"inconclusive [inhibitor, partial curve]",
CCOc1ccc(CNc2ccc(S(N)(=O)=O)cc2)cc1,"inconclusive [inhibitor, partial curve]",
NC(Cc1ccccc1)c1csc(Nc2nccc(C(F)(F)F)n2)n1 (stereo unspecified),"inconclusive [inhibitor, partial curve]",
CCOC(=O)c1cc2n(c1/N=C/N(C)C)-c1ccccc1C2=O,inactive,
COc1cccc(OCc2cc(/C=N/Nc3ccc(C(=O)O)cc3)ccc2OC)c1,"inconclusive [inhibitor, single point]",
